# Measurements: PubChem BioAssay AID504339 (National Center for Advancing Translational Sciences (NCATS), 2011)
# The whole screen tested about 390,000 compounds, of which about 17,000 (4.4%) were called active. Inconclusive results, whose numbers are uncertain, are shown with a selection of clear calls. Calls come from the whole dose curve; as a rule, active = well fitted inhibition curve with a large enough effect; inconclusive = small, poorly fitted or top-dose-only effect; inactive = no such curve, though single readings can be large or run the other way. Potencies of inconclusive entries are doubtful fits and often do not repeat.
# Molecular target: Lysine-specific demethylase 4A (Homo sapiens) (UniProt O75164)
# Sequence of UniProt O75164 (O75164 whole entry, looked up, the tested form may be a part): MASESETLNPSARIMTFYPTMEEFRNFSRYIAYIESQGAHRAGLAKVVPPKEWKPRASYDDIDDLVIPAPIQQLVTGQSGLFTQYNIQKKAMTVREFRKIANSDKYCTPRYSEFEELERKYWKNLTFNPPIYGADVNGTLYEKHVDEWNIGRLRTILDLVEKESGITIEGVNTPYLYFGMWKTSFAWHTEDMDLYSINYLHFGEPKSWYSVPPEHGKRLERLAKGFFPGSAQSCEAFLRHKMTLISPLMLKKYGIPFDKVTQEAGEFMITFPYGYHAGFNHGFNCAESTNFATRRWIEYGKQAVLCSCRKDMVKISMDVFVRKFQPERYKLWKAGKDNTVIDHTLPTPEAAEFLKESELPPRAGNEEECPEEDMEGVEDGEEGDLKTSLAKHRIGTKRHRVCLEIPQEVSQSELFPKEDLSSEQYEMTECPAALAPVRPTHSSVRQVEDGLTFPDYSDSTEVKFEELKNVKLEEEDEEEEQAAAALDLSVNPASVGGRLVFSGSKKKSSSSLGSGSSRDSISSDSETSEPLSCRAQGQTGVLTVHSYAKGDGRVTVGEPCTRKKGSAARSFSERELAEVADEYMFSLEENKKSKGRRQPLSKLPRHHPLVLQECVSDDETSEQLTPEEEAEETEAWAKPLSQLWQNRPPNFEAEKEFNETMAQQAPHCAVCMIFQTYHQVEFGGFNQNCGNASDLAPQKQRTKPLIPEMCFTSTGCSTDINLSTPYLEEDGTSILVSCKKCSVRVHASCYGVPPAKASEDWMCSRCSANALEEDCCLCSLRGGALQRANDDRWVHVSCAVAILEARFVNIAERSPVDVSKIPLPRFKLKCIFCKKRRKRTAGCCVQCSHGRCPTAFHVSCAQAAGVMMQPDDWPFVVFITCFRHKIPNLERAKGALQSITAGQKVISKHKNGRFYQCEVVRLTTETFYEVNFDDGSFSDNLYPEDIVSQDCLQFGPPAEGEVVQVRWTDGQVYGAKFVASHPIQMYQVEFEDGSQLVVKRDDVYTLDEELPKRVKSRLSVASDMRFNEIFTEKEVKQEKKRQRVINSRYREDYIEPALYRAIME
# Test: qHTS Assay for Inhibitors of JMJD2A-Tudor Domain; note: nearly all actives have a fitted effect of over 50% in size
# Conditions: AlphaScreen JMJD2A-Tudor / H3K4me3 peptide binding; activity change, negative = inhibition: at 114 µM (top of the series)
# % is set by controls: 0 for no effect and ±100 for the full control effect; potency is the fitted concentration of half-maximal effect; tags give direction and shape of the fitted curve.
Structure (SMILES),"activity change, negative = inhibition",Potency
COC(=O)[C@H](CC(C)C)NC(=O)Nc1ccccc1F,inactive: -4.36%,
Cc1ccc(C(=O)N/C(=C/c2ccco2)C(=O)NCCCn2ccnc2)cc1,inactive: -7.28%,
CCOc1cc(S(=O)(=O)NCCc2c(C)[nH]c3ccc(C)cc23)ccc1F,,active: 50.1 µM
C/C(=N\Nc1nc(C)c(C)s1)c1ccc([N+](=O)[O-])cc1,,"inconclusive: 44.7 µM [inhibitor, partial curve]"
CS(=O)(=O)c1ccc(Cl)c(NC(=O)CSc2n[nH]c(-c3cccs3)n2)c1,inactive: -14.1%,
c1ccc(-c2nc(NCc3cccnc3)c3oc4ccccc4c3n2)cc1,,"inconclusive: 25.1 µM [inhibitor, partial curve]"
CN(C)c1nc(NCc2ccccc2)nc(N/N=C/c2cccc(Br)c2)n1,,"inconclusive: 3.16 µM [inhibitor, single point]"
CCn1c(-c2cc(Br)ccc2O)n[nH]c1=S,,active: 12.6 µM
Cc1ccnc(NC(=O)Nc2cccc(F)c2)c1,inactive: 0%,
CCS(=O)(=O)N1CCN(CC2CC3C=CC2C3)CC1 (centres undefined),,active: 1.26 µM
Cc1ccnc(NS(=O)(=O)c2ccc(NC(=O)Cc3cccs3)cc2)n1,,active: 31.6 µM
Cc1ccc(C)c(S(=O)(=O)N2CCN(C(=O)/C=C/c3ccco3)CC2)c1,,active: 44.7 µM
CC1CN(c2nc3ccccc3nc2SCC(=O)Nc2ccc(F)cc2)CC(C)O1 (centres undefined),inactive: -0.704%,
Cc1cc(C)c(S(=O)(=O)NCCn2c(C)cc3ccccc32)c(C)c1,,"inconclusive: 56.2 µM [inhibitor, partial curve]"
CCCSc1oc(-c2cccs2)nc1S(=O)(=O)c1ccc(C)cc1,inactive: 15.4%,
CCOc1cccc(C(=O)Nc2ccc3oc(-c4ccncc4)nc3c2)c1,inactive: -15%,
COc1ccc(-c2cc(OC(=O)c3ccccc3Cl)c3c(C)oc(C)c3c(=O)c2)cc1OC,,"inconclusive: 56.2 µM [inhibitor, partial curve]"
C#CCOCCOCCOCCNc1nc(N2CCN(C(=O)C([C@@H](C)O)n3cc([C@@H](N)CCCCN)nn3)CC2)nc(N2CCN(C(=O)[C@H](CCCN=C(N)N)n3cc(C(N)[C@@H](C)CC)nn3)CC2)n1 (some centres undefined),,active: 56.2 µM
Cc1nnc(N/N=C/c2ccccc2O)n1N,,"inconclusive: 89.1 µM [inhibitor, partial curve]"
O=C(NCc1cccnc1)/C(=C/c1ccc(-c2ccc(Cl)cc2)o1)S(=O)(=O)c1ccccc1,,"inconclusive: 28.2 µM [inhibitor, full curve, poor fit]"
COc1cccc(CNCc2ccccn2)c1OC,,active: 56.2 µM
COc1ccccc1CNc1ncnc2onc(-c3ccc(F)cc3)c12,inactive: -12.2%,
Cc1cccc(NC(=O)Cc2nc(-c3c[nH]c(C(=O)N4CCCC4)c3)cs2)c1,,"inconclusive: 63.1 µM [inhibitor, partial curve, poor fit]"
Cc1ccc(NC(=S)Nc2c(C)n(C)n(-c3ccccc3)c2=O)cc1Cl,inactive: -14%,
CCN(C(=O)CSc1nncn1-c1ccccc1)C1CCS(=O)(=O)C1 (centres undefined),inactive: -19.3%,

Structure (SMILES),"activity change, negative = inhibition",Potency
O=C(O)c1n[nH]nc1-c1ccccc1,,active: 4.47 µM
Oc1c(Br)cc(Br)c(/C=N/n2c(-c3ccccc3)n[nH]c2=S)c1Br,,active: 7.94 µM
O=C1c2cccc3c([N+](=O)[O-])ccc(c23)C(=O)N1O,,"inconclusive: 50.1 µM [inhibitor, partial curve]"
CCOc1ccc(CNC(=O)CCCn2c(=O)c3cccn3c3ccccc32)cc1,,"inconclusive: 11.2 µM [inhibitor, full curve]"
NC(=O)c1c(NC(=O)CN2CCCC2)sc2c1CCCC2,,active: 17.8 µM
N/C(=N\OC(=O)Cc1cccs1)c1ccc([N+](=O)[O-])cc1,,"inconclusive: 50.1 µM [inhibitor, partial curve]"
O=C(CSc1ccc(-c2ccc(Br)cc2)nn1)NC1CCCC1,inactive: -2.92%,
O=[N+]([O-])c1ccc(C=NNc2ccccc2)cc1,,active: 25.1 µM
COc1cccc(CNC(=O)C2CSC3(C)CCC(=O)N23)c1 (centres undefined),inactive: -9.66%,
Cn1sc(=O)c2cc(S(=O)(=O)NC3CC3)ccc21,,"inconclusive: 56.2 µM [inhibitor, partial curve, poor fit]"
O=C(Oc1ccccc1C(=S)N1CCOCC1)c1cccc([N+](=O)[O-])c1,,"inconclusive: 56.2 µM [inhibitor, partial curve]"
Cc1ccc(-c2nnc(SCC(=O)NC(C)(C)C)nc2-c2ccc(C)cc2)cc1,,"inconclusive: 39.8 µM [inhibitor, partial curve]"
CCOCCN1CCN(C2c3ccccc3CSc3ccccc32)CC1 (centres undefined),,active: 12.6 µM
Nc1nc(SCn2nnc3ccccc3c2=O)n[nH]1,inactive: -10.1%,
Cc1ccc(-n2c(SCC(=O)Nc3cccc(S(N)(=O)=O)c3)nc3ccccc32)cc1,,"inconclusive: 56.2 µM [inhibitor, partial curve]"
COc1ccc(/C=N\NC(=O)c2ccccc2[N+](=O)[O-])cc1COc1c(F)c(F)c(F)c(F)c1F,,"inconclusive: 31.6 µM [inhibitor, full curve]"
CCOc1cc(N2CCOCC2)c(OCC)cc1NC(=O)C(C)Oc1ccccc1 (centres undefined),,active: 35.5 µM
COCCn1c(SC(C)C(=O)Nc2ccc(N3CCOCC3)cc2)nnc1-c1ccncc1 (centres undefined),inactive: -14.9%,
c1ccc(-c2nnc(-c3ccccc3)nn2)cc1,,"inconclusive: 1.26 µM [inhibitor, full curve]"
COc1ccc2nc(SCC(O)c3cccc(Br)c3)[nH]c2c1 (centres undefined),,"inconclusive: 100 µM [inhibitor, partial curve, poor fit]"
COC(=O)c1c(NC(C)=O)sc2c1CCN(Cc1ccccc1)C2,inactive: -20.4%,
CCN(CC)C(=O)CSc1nc2cc3c(cc2c(=O)n1CCCC(=O)NCc1ccc2c(c1)OCO2)OCO3,inactive: -12.7%,
COc1ccc(Nc2c(-c3ccc(OC)cc3)nc3cnccn23)cc1,,"inconclusive: 79.4 µM [inhibitor, partial curve]"
Nc1nc(-c2ccccc2)c(N=Nc2ccc(Cl)cc2)s1,,"inconclusive: 12.6 µM [inhibitor, partial curve]"
